# In PMC11445476, “CHC22 clathrin recruitment to the early secretory pathway requires two-site interaction with SNX5 and p115” (The EMBO Journal, 2024):
# The chains behind the UniProt entries cited, without tags or fusion partners. Residues count along the entry.
# UniProt Q00610, residues 1-364: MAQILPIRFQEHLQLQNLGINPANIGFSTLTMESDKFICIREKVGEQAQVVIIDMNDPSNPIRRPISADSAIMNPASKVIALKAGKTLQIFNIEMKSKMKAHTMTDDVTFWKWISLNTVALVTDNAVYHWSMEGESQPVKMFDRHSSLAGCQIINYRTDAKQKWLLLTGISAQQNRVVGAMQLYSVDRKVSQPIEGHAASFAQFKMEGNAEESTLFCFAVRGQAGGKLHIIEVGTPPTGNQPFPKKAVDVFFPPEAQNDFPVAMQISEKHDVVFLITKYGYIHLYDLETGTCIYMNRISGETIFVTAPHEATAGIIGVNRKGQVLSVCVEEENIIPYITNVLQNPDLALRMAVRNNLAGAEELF
# UniProt Q13596: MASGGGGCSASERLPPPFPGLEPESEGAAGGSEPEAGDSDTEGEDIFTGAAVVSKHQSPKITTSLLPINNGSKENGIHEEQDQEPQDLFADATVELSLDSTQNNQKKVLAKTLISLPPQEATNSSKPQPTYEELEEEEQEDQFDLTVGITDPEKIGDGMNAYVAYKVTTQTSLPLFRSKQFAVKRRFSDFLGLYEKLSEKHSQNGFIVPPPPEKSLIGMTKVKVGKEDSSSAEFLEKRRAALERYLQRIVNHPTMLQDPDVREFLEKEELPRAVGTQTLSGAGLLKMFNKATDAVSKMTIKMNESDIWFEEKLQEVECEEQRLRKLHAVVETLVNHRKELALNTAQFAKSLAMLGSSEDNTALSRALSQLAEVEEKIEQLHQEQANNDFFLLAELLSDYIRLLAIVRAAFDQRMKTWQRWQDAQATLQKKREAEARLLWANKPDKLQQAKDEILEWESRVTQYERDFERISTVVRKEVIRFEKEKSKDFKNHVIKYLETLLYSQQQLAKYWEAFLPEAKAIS
# Results are given in words; binding and its absence hold for the method and conditions named. For some of these results: Binding seen in cells or lysates may run through a third protein. Some binding calls cover weakened binding; strength is not graded here. For some of these results: Tags and fused reporters may be left off the sequences shown.
# B1: p115 (endogenous) (protein, UniProt O60763 1-962)
# chain: MNFLRGVMGGQSAGPQHTEAETIQKLCDRVASSTLLDDRRNAVRALKSLSKKYRLEVGIQAMEHLIHVLQTDRSDSEIIGYALDTLYNIISNEEEEEVEENSTRQSEDLGSQFTEIFIKQQENVTLLLSLLEEFDFHVRWPGVKLLTSLLKQLGPQVQQIILVSPMGVSRLMDLLADSREVIRNDGVLLLQALTRSNGAIQKIVAFENAFERLLDIISEEGNSDGGIVVEDCLILLQNLLKNNNSNQNFFKEGSYIQRMKPWFEVGDENSGWSAQKVTNLHLMLQLVRVLVSPTNPPGATSSCQKAMFQCGLLQQLCTILMATGVPADILTETINTVSEVIRGCQVNQDYFASVNAPSNPPRPAIVVLLMSMVNERQPFVLRCAVLYCFQCFLYKNQKGQGEIVSTLLPSTIDATGNSVSAGQLLCGGLFSTDSLSNWCAAVALAHALQENATQKEQLLRVQLATSIGNPPVSLLQQCTNILSQGSKIQTRVGLLMLLCTWLSNCPIAVTHFLHNSANVPFLTGQIAENLGEEEQLVQGLCALLLGISIYFNDNSLESYMKEKLKQLIEKRIGKENFIEKLGFISKHELYSRASQKPQPNFPSPEYMIFDHEFTKLVKELEGVITKAIYKSSEEDKKEEEVKKTLEQHDNIVTHYKNMIREQDLQLEELRQQVSTLKCQNEQLQTAVTQQVSQIQQHKDQYNLLKIQLGKDNQHQGSYSEGAQMNGIQPEEIGRLREEIEELKRNQELLQSQLTEKDSMIENMKSSQTSGTNEQSSAIVSARDSEQVAELKQELATLKSQLNSQSVEITKLQTEKQELLQKTEAFAKSVEVQGETETIIATKTTDVEGRLSALLQETKELKNEIKALSEERTAIKEQLDSSNSTIAILQTEKDKLELEITDSKKEQDDLLVLLADQDQKILSLKNKLKDLGHPVEEEDELESGDQEDEDDESEDPGKDLDHI
# Legend:
# [1] = biological target: T1, full-length GST-p115 (UniProt O60763 1-962); experiment: pull-down; GST, GST-GGA2-HE or GST-p115 on glutathione beads, 12.5 µg purified His-bdSUMO-CHC17 TD in 250 µl CHC17 PD buffer for 60 min, immunoblot; both purified
# T1 construct: p115, full-length, residues 1-962, amplified from pIY119 into pGEX3; not shown: GST, N-terminal, kept
# T1 sequence (looked up): B1 chain
# [2] = biological target: CHC22 clathrin heavy chain (endogenous) (human (endogenous in HeLa and AB1190 myotubes)) (UniProt P53675); experiment: co-IP; anti-CHC22 antibody with post-nuclear HeLa lysate overnight at 4 °C, protein G Sepharose, immunoblot; control parental HeLa, also ΔSNX1/2 and ΔVPS35 lines
# [3] = biological target: CHC22 clathrin heavy chain (endogenous) (human (endogenous in HeLa and AB1190 myotubes)) (UniProt P53675); experiment: proximity ligation; fixed HeLa cells (control parental and ΔSNX5/6), antibodies to CHC22 and p115 with Duolink PLA probes; puncta per cell counted
# [4] = biological target: sfGFP-CHC22 wild-type (human) (UniProt P53675); experiment: co-IP; GFP-Trap agarose beads with lysate of HeLa cells transfected with GFP-tagged clathrin heavy chains, 1 h at 4 °C, immunoblot for GFP and p115
# [5] = biological target: T2, sfGFP-ΔTD-CHC22 (human) (UniProt P53675); experiment: as above
# T2 sequence: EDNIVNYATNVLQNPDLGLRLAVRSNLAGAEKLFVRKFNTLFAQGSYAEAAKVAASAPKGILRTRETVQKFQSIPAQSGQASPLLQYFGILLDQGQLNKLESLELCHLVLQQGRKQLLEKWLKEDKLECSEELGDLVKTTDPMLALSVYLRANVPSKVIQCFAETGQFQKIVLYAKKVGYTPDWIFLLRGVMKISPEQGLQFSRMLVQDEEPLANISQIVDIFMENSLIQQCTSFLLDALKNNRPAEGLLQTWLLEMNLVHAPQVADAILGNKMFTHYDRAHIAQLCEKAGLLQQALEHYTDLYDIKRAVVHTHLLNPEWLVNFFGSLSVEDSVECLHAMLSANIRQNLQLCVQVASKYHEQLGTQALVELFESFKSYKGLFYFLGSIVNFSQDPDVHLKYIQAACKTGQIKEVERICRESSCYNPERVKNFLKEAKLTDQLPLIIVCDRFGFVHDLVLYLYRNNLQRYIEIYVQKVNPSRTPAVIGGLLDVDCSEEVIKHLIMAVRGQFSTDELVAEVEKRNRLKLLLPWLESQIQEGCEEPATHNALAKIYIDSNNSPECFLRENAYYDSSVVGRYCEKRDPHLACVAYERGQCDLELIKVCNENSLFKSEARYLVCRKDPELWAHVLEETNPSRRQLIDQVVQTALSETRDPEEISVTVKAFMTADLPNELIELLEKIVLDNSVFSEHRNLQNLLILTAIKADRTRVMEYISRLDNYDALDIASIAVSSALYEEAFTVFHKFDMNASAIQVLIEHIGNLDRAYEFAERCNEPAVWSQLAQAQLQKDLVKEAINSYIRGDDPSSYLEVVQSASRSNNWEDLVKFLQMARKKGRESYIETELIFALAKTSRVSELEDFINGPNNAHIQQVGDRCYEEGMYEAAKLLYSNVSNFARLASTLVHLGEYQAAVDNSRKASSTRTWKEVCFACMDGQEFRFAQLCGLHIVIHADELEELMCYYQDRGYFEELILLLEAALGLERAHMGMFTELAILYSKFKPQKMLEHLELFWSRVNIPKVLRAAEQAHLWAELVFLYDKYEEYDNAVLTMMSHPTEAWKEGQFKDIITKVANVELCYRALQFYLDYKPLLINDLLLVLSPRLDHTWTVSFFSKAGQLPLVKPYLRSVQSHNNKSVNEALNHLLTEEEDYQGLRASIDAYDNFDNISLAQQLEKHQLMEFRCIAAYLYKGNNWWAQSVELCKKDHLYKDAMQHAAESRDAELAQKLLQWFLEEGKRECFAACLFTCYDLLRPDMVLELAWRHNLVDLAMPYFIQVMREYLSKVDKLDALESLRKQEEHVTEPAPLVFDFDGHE
# [6] = biological target: CHC22 clathrin heavy chain (endogenous) (human (endogenous in HeLa and AB1190 myotubes)) (UniProt P53675); experiment: co-IP; anti-CHC22 antibody with post-nuclear HeLa lysate overnight at 4 °C, protein G Sepharose, immunoblot; control parental HeLa, also ΔSNX1/2 and ΔVPS35 lines; remark: listed apart in the source
# [7] = biological target: CHC22 clathrin heavy chain (endogenous) (human (endogenous in HeLa and AB1190 myotubes)) (UniProt P53675); experiment: condition: only in ΔSNX5/6 cells (SNX5 and SNX6 genes deleted); co-IP; anti-CHC22 antibody with lysate of ΔSNX5/6 HeLa cells (SNX5 and SNX6 genes deleted), protein G Sepharose, immunoblot
molecule,measurement,setting,value
His-SUMO-tagged CHC17 terminal domain (from UniProt Q00610 1-364) (domain or fragment),binding,[1],no binding (tested: 12.5 µg in 250 µl)
SNX1 (endogenous) (from UniProt Q13596 1-522),binding,[2],no binding
B1,binding,[3],binds
same,binding,[4],binds
same,binding,[5],binds
same,binding,[6],binds
same,binding,[7],no binding
